This is one part of the list.
Each sequence was assayed against T1, MBP-FoxP1dN (Mus musculus, UniProt P58462 326-579) (assay: PD-seq (MBP pull-down with sequencing); 20 mM Tris-HCl pH 7.5, 100 mM NaCl, 1.5 mM MgCl2, 0.4 uM protein, 0.1 uM dsDNA library, 30 min, room temperature, amylose pull-down; high values mean tight binding). Details: protein: recombinant; tags: His6-MBP; chain copies: 2; dsDNA, one strand shown.
T1 sequence: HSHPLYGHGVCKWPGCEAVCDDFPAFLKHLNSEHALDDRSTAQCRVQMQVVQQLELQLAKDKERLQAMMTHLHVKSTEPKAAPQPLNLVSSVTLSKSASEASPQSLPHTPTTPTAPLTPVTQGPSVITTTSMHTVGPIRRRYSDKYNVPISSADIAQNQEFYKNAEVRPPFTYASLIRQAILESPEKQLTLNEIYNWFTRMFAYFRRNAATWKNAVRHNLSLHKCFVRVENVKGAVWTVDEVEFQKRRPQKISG
Summary of the method: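 Binding is reads-per-million enrichment of pull-down over input, with replicates pooled. It comes from 30 min room-temperature incubation in Tris pH 7.5 buffer with NaCl and MgCl2 of 0.4 µM His6-MBP-tagged, N-terminally truncated mouse FoxP3 or FoxP1 fragment from E. coli with 0.1 µM Klenow-filled degenerate double-stranded DNA library, followed by amylose resin capture, three washes and Illumina sequencing of the released DNA.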
For “GATGATTGTTCTCCCAGCTGATGAATTATCGGGATCGAGTAAACAAATTTTCCTAATCTTTCTGTTCAAGCGCCATCTAC”, the binding signal was 0.87 RPM ratio (pull-down/input). With “GATGATTGTTCTCCCAGCTGATGAATTAAGTATCTCGAGTAAACAAATTTTCCTAATCTTTCTGTTCAAGCGCCATCTAC” the binding signal was 1.06 RPM ratio (pull-down/input). For “GATGATTGTTCTCCCAGCTGATGAATTACTAAGATCGAGTAAACAAATTTTCCTAATCTTTCTGTTCAAGCGCCATCTAC”, the binding signal was 1.09 RPM ratio (pull-down/input). For “GATGATTGTTCTCCCAGCTGATGAATTACTGAAGTCGAGTAAACAAATTTTCCTAATCTTTCTGTTCAAGCGCCATCTAC”, the binding signal was 1.03 RPM ratio (pull-down/input). In the case of “GATGATTGTTCTCCCAGCTGATGAATTTTGACTCTCGAGTAAACAAATTTTCCTAATCTTTCTGTTCAAGCGCCATCTAC”, the binding signal is reported as 0.887 RPM ratio (pull-down/input). “GATGATTGTTCTCCCAGCTGATGAATTTTTGACCTCGAGTAAACAAATTTTCCTAATCTTTCTGTTCAAGCGCCATCTAC” was tested, and the binding signal was 0.849 RPM ratio (pull-down/input). “GATGATTGTTCTCCCAGCTGATGAATTAGGAAAATCGAGTAAACAAATTTTCCTAATCTTTCTGTTCAAGCGCCATCTAC” was tested, and the binding signal was 1.06 RPM ratio (pull-down/input). With “GATGATTGTTCTCCCAGCTGATGAATTCTTTGGTTCGAGTAAACAAATTTTCCTAATCTTTCTGTTCAAGCGCCATCTAC” the binding signal was 0.938 RPM ratio (pull-down/input). “GATGATTGTTCTCCCAGCTGATGAATTCCTTGCTTCGAGTAAACAAATTTTCCTAATCTTTCTGTTCAAGCGCCATCTAC” was tested, and the binding signal was 0.906 RPM ratio (pull-down/input). “GATGATTGTTCTCCCAGCTGATGAATTGACGGCCTCGAGTAAACAAATTTTCCTAATCTTTCTGTTCAAGCGCCATCTAC” was tested, and the binding signal was 0.983 RPM ratio (pull-down/input). For “GATGATTGTTCTCCCAGCTGATGAATTTTCATAATCGAGTAAACAAATTTTCCTAATCTTTCTGTTCAAGCGCCATCTAC”, the binding signal was 1.22 RPM ratio (pull-down/input). In the case of “GATGATTGTTCTCCCAGCTGATGAATTGTTACCCTCGAGTAAACAAATTTTCCTAATCTTTCTGTTCAAGCGCCATCTAC”, the binding signal is reported as 1.16 RPM ratio (pull-down/input). For “GATGATTGTTCTCCCAGCTGATGAATTGGTTCTATCGAGTAAACAAATTTTCCTAATCTTTCTGTTCAAGCGCCATCTAC”, the binding signal was 1.02 RPM ratio (pull-down/input). In the case of “GATGATTGTTCTCCCAGCTGATGAATTCAGGCGATCGAGTAAACAAATTTTCCTAATCTTTCTGTTCAAGCGCCATCTAC”, the binding signal is reported as 0.825 RPM ratio (pull-down/input). In the case of “GATGATTGTTCTCCCAGCTGATGAATTACACATGTCGAGTAAACAAATTTTCCTAATCTTTCTGTTCAAGCGCCATCTAC”, the binding signal is reported as 1.25 RPM ratio (pull-down/input). “GATGATTGTTCTCCCAGCTGATGAATTGCTATCATCGAGTAAACAAATTTTCCTAATCTTTCTGTTCAAGCGCCATCTAC” was tested, and the binding signal was 1.23 RPM ratio (pull-down/input). “GATGATTGTTCTCCCAGCTGATGAATTGGGGGAGTCGAGTAAACAAATTTTCCTAATCTTTCTGTTCAAGCGCCATCTAC” was tested, and the binding signal was 0.821 RPM ratio (pull-down/input). With “GATGATTGTTCTCCCAGCTGATGAATTGATGGCTTCGAGTAAACAAATTTTCCTAATCTTTCTGTTCAAGCGCCATCTAC” the binding signal was 0.937 RPM ratio (pull-down/input). For “GATGATTGTTCTCCCAGCTGATGAATTCGGGTTTTCGAGTAAACAAATTTTCCTAATCTTTCTGTTCAAGCGCCATCTAC”, the binding signal was 0.82 RPM ratio (pull-down/input). With “GATGATTGTTCTCCCAGCTGATGAATTGAGCAAATCGAGTAAACAAATTTTCCTAATCTTTCTGTTCAAGCGCCATCTAC” the binding signal was 1.07 RPM ratio (pull-down/input). “GATGATTGTTCTCCCAGCTGATGAATTCTAGAGATCGAGTAAACAAATTTTCCTAATCTTTCTGTTCAAGCGCCATCTAC” was tested, and the binding signal was 0.799 RPM ratio (pull-down/input). “GATGATTGTTCTCCCAGCTGATGAATTGAGTGTGTCGAGTAAACAAATTTTCCTAATCTTTCTGTTCAAGCGCCATCTAC” was tested, and the binding signal was 1.06 RPM ratio (pull-down/input). “GATGATTGTTCTCCCAGCTGATGAATTGCCAAGTTCGAGTAAACAAATTTTCCTAATCTTTCTGTTCAAGCGCCATCTAC” was tested, and the binding signal was 0.953 RPM ratio (pull-down/input). For “GATGATTGTTCTCCCAGCTGATGAATTAATGCATTCGAGTAAACAAATTTTCCTAATCTTTCTGTTCAAGCGCCATCTAC”, the binding signal was 1.67 RPM ratio (pull-down/input). In the case of “GATGATTGTTCTCCCAGCTGATGAATTTTTAAGGTCGAGTAAACAAATTTTCCTAATCTTTCTGTTCAAGCGCCATCTAC”, the binding signal is reported as 0.884 RPM ratio (pull-down/input). For “GATGATTGTTCTCCCAGCTGATGAATTTTAGGGATCGAGTAAACAAATTTTCCTAATCTTTCTGTTCAAGCGCCATCTAC”, the binding signal was 0.823 RPM ratio (pull-down/input). “GATGATTGTTCTCCCAGCTGATGAATTTACCGATTCGAGTAAACAAATTTTCCTAATCTTTCTGTTCAAGCGCCATCTAC” was tested, and the binding signal was 1.31 RPM ratio (pull-down/input). With “GATGATTGTTCTCCCAGCTGATGAATTTGTTCATTCGAGTAAACAAATTTTCCTAATCTTTCTGTTCAAGCGCCATCTAC” the binding signal was 1.2 RPM ratio (pull-down/input). “GATGATTGTTCTCCCAGCTGATGAATTCGGTTCATCGAGTAAACAAATTTTCCTAATCTTTCTGTTCAAGCGCCATCTAC” was tested, and the binding signal was 0.902 RPM ratio (pull-down/input). “GATGATTGTTCTCCCAGCTGATGAATTCCTTCTTTCGAGTAAACAAATTTTCCTAATCTTTCTGTTCAAGCGCCATCTAC” was tested, and the binding signal was 0.871 RPM ratio (pull-down/input). For “GATGATTGTTCTCCCAGCTGATGAATTTCTCTGTTCGAGTAAACAAATTTTCCTAATCTTTCTGTTCAAGCGCCATCTAC”, the binding signal was 0.866 RPM ratio (pull-down/input).

Source: publication PMC12820563, “FoxP3 forms a head-to-head dimer in vivo and stabilizes its multimerization on adjacent microsatellites”
